Data taken from a collection of fitness landscapes (doi:10.1016/j.celrep.2020.107928).
The full ranking holds about 81,000 sequences; the median of “one-hybrid fitness for binding NBS DNA” is about -0.1, and the highest 2% start at about 0.36. The list shows a part of the results.

B1: Caulobacter ParB omega fusion; a variant is named by its letters at X, in order, B8GW30 (parent)
chain: MESVVVGEPGMSEGRRGLGRGLSALLGEVDAAPAQAPGEQLGGSREAPIEILQRNPDQPRRTFREEDLEDLSNSIREKGVLQPILVRPSPDTAGEYQIVAGERAWRAAQRAGLKTVPIMVRELDDLAVLEIGIIENVQRADLNVLEEALSYKVLMEKFERTQENIAQTIGKSXSHVANXMRLLXLPDEVQSYLVSGELTAXHARAIAAAADPVALAKQIIEGGLSVRETEALARKAPNLSAGKSKGGRPPRVKDTDTQALESDLSSVLGLDVSIDHRGSTGTLTITYATLEQLDDLCNRLTRGI

Variants of: B1
Assay: one-hybrid fitness for binding NBS DNA (the Noc-binding site; scaled: cognate 1, non-cognate 0); higher = stronger binding
Settings: with NBS DNA site
Procedure, shortened: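 Values were rescaled so that cognate is 1 and non-cognate is 0. Each is a fitness, the log change in a variant's read ratio to wild type from Illumina reads of plasmids before and after selection, with three replicate libraries pooled and variants under 10 reads dropped. Selection of the Caulobacter ParB libraries, four specificity codons randomised, used E. coli USO with a HIS3 reporter, site 19 bp from the promoter, on M9-minus-histidine with 0.1 mM IPTG and 5 mM 3-AT for 48 hours at 37°C.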

Row | Variant | one-hybrid fitness for binding NBS DNA
1 | YTLW | ≤ 0.2
2 | KLHA | ≤ 0.2
3 | EAKV | ≤ 0.2
4 | GSFV | ≤ 0.2
5 | ISVG | ≤ 0.2
6 | STYI | ≤ 0.2
7 | RTVQ | 0.321
8 | PPHL | ≤ 0.2
9 | GYHN | ≤ 0.2
10 | ARHF | ≤ 0.2
11 | RCGE | ≤ 0.2
12 | QHSA | ≤ 0.2
13 | ETPL | ≤ 0.2
14 | IRSS | ≤ 0.2
15 | AFTC | ≤ 0.2
16 | TCTS | ≤ 0.2
17 | DYHC | ≤ 0.2
18 | RGDC | ≤ 0.2
19 | GSKW | ≤ 0.2
20 | RTNW | ≤ 0.2
21 | APSA | ≤ 0.2
22 | NPFG | ≤ 0.2
23 | QWSH | ≤ 0.2
24 | ILYK | ≤ 0.2

Row | Variant | one-hybrid fitness for binding NBS DNA
25 | RQMY | ≤ 0.2
26 | TPIP | ≤ 0.2
27 | TRPK | ≤ 0.2
28 | ARQS | ≤ 0.2
29 | QTYY | 0.262
30 | NSMT | ≤ 0.2
31 | IYSI | ≤ 0.2
32 | ASNE | ≤ 0.2
33 | TWRR | ≤ 0.2
34 | QGHY | ≤ 0.2
35 | KPHL | ≤ 0.2
36 | MCLS | ≤ 0.2
37 | PKKT | ≤ 0.2
38 | QHTK | ≤ 0.2
39 | ARDR | ≤ 0.2
40 | NHSL | ≤ 0.2
41 | YLLT | ≤ 0.2
42 | GYTA | ≤ 0.2
43 | TQIS | ≤ 0.2
44 | LKSI | ≤ 0.2
45 | SHTE | ≤ 0.2
46 | AVAS | ≤ 0.2
47 | LEVG | ≤ 0.2
48 | KNVG | ≤ 0.2

Row | Variant | one-hybrid fitness for binding NBS DNA
49 | VLKT | ≤ 0.2
50 | GLGA | ≤ 0.2
51 | VLTR | ≤ 0.2
52 | ILTC | ≤ 0.2
53 | TVQC | ≤ 0.2
54 | PCRA | ≤ 0.2
55 | RAYP | ≤ 0.2
56 | GIVR | ≤ 0.2
57 | DEPC | ≤ 0.2
58 | TPKI | ≤ 0.2
59 | LLCP | ≤ 0.2
60 | MSEH | ≤ 0.2
61 | TTRR | 0.378
62 | AQVV | ≤ 0.2
63 | SGMS | ≤ 0.2
64 | PCRL | ≤ 0.2
65 | GCQA | ≤ 0.2
66 | ISVS | ≤ 0.2
67 | GKQR | ≤ 0.2
68 | FYFS | ≤ 0.2
69 | PEDM | ≤ 0.2
70 | EPVV | ≤ 0.2
71 | RCTA | 0.238
72 | AGRN | ≤ 0.2

Row | Variant | one-hybrid fitness for binding NBS DNA
73 | TFLQ | ≤ 0.2
74 | ATVI | ≤ 0.2
75 | LQMC | ≤ 0.2
76 | RENS | ≤ 0.2
77 | CRMS | ≤ 0.2
78 | DARN | ≤ 0.2
79 | EPYW | ≤ 0.2
80 | PNWV | ≤ 0.2
81 | PCTS | ≤ 0.2
82 | KRGI | ≤ 0.2
83 | RISH | ≤ 0.2
84 | GRPR | ≤ 0.2
85 | PLSF | ≤ 0.2
86 | QSGL | ≤ 0.2
87 | SEVA | ≤ 0.2
88 | QTKA | 0.708
89 | HCMW | ≤ 0.2
90 | KFPD | ≤ 0.2
91 | HGTA | ≤ 0.2
92 | WTQR | ≤ 0.2
93 | YRVC | ≤ 0.2
94 | VPWR | ≤ 0.2
95 | CDTS | ≤ 0.2
96 | AKVN | ≤ 0.2

Row | Variant | one-hybrid fitness for binding NBS DNA
97 | CMLE | ≤ 0.2
98 | HYIR | ≤ 0.2
99 | AHEK | ≤ 0.2
100 | NDKD | ≤ 0.2
101 | HSLL | ≤ 0.2
102 | NQSV | ≤ 0.2
103 | HTGS | ≤ 0.2
104 | DTSE | ≤ 0.2
105 | LELN | ≤ 0.2
106 | QMTP | ≤ 0.2
107 | GMFL | ≤ 0.2
108 | VPRN | ≤ 0.2
109 | ECSN | ≤ 0.2
110 | TAWC | ≤ 0.2
111 | CQKA | ≤ 0.2
112 | IACF | ≤ 0.2
113 | CLGY | ≤ 0.2
114 | HTHW | ≤ 0.2
115 | GFDC | ≤ 0.2
116 | SSTV | ≤ 0.2
117 | QREM | ≤ 0.2
118 | APMC | ≤ 0.2
119 | KERD | ≤ 0.2
120 | TYNG | ≤ 0.2

Row | Variant | one-hybrid fitness for binding NBS DNA
121 | CRTA | ≤ 0.2
122 | RLTI | ≤ 0.2
123 | TSIL | ≤ 0.2
124 | VHVV | ≤ 0.2
125 | MTFG | ≤ 0.2
126 | AVWS | ≤ 0.2
127 | HCLG | ≤ 0.2
128 | HCWS | ≤ 0.2
129 | PYPG | ≤ 0.2
130 | WRQV | ≤ 0.2
131 | PIYE | ≤ 0.2
132 | KAST | ≤ 0.2
133 | HWTG | ≤ 0.2
134 | NGPP | ≤ 0.2
135 | AWRA | ≤ 0.2
136 | EAGV | ≤ 0.2
137 | AYFF | ≤ 0.2
138 | PKSN | ≤ 0.2
139 | WYRS | ≤ 0.2
140 | RDLR | ≤ 0.2
141 | RIRI | ≤ 0.2
142 | DERR | ≤ 0.2
143 | TKCC | ≤ 0.2
144 | QPFW | ≤ 0.2

Row | Variant | one-hybrid fitness for binding NBS DNA
145 | PVTI | ≤ 0.2
146 | HYPE | ≤ 0.2
147 | GVYA | ≤ 0.2
148 | ACRR | 0.213
149 | LPNC | ≤ 0.2
150 | FAAL | ≤ 0.2
151 | PMTK | ≤ 0.2
152 | EATD | ≤ 0.2
153 | PHES | ≤ 0.2
154 | VQTT | ≤ 0.2
155 | HNPA | ≤ 0.2
156 | IEKP | ≤ 0.2
157 | SNDG | ≤ 0.2
158 | RGIV | ≤ 0.2
159 | PLWY | ≤ 0.2
160 | MIHF | ≤ 0.2
161 | LTNS | ≤ 0.2
162 | YDRH | ≤ 0.2
163 | RLTC | ≤ 0.2
164 | QSTS | 0.364
165 | DTQP | ≤ 0.2
166 | ADYG | ≤ 0.2
167 | YQRH | ≤ 0.2
168 | RVMT | 0.321

Row | Variant | one-hybrid fitness for binding NBS DNA
169 | LRDW | ≤ 0.2
170 | YLSR | ≤ 0.2
171 | MMTT | ≤ 0.2
172 | PLTR | ≤ 0.2
173 | PVLD | ≤ 0.2
174 | PVRM | ≤ 0.2
175 | SLTR | ≤ 0.2
176 | QPLQ | ≤ 0.2
177 | KTWQ | ≤ 0.2
178 | WNND | ≤ 0.2
179 | SVVD | ≤ 0.2
180 | MQSR | ≤ 0.2
181 | AKRV | ≤ 0.2
182 | SLEV | ≤ 0.2
183 | SSKR | 0.205
184 | LVVS | ≤ 0.2
185 | PQHV | ≤ 0.2
186 | HQYW | ≤ 0.2
187 | IPQC | ≤ 0.2
188 | KRWT | 0.669
189 | YNAE | ≤ 0.2
190 | FFRS | ≤ 0.2
191 | QTVL | ≤ 0.2
192 | RTCT | 0.531

Row | Variant | one-hybrid fitness for binding NBS DNA
193 | RVWN | ≤ 0.2
194 | GVSK | ≤ 0.2
195 | VVCG | ≤ 0.2
196 | SLYI | ≤ 0.2
197 | VYMY | ≤ 0.2
198 | PAAC | ≤ 0.2
199 | QTRP | 0.401
200 | QGHF | ≤ 0.2
201 | EPHC | ≤ 0.2
202 | AVSD | ≤ 0.2
203 | YVLG | ≤ 0.2
204 | RYRE | ≤ 0.2
205 | DTYY | ≤ 0.2
206 | RNWE | ≤ 0.2
207 | TSNW | ≤ 0.2
208 | QCDW | ≤ 0.2
209 | PRYQ | ≤ 0.2
210 | YIST | ≤ 0.2
211 | QYMG | ≤ 0.2
212 | TGRK | ≤ 0.2
213 | WGLS | ≤ 0.2
214 | NNLW | ≤ 0.2
215 | QPQG | ≤ 0.2
216 | RYLP | ≤ 0.2

Row | Variant | one-hybrid fitness for binding NBS DNA
217 | FEVR | ≤ 0.2
218 | GMYR | ≤ 0.2
219 | NSER | ≤ 0.2
220 | TPII | ≤ 0.2
221 | WMAG | ≤ 0.2
222 | HKGV | ≤ 0.2
223 | RSKW | ≤ 0.2
224 | HWES | ≤ 0.2
225 | RFSM | ≤ 0.2
226 | SDWR | ≤ 0.2
227 | QKQY | 0.243
228 | YNYT | ≤ 0.2
229 | TCWS | ≤ 0.2
230 | TMES | ≤ 0.2
231 | ALQL | ≤ 0.2
232 | RDQT | ≤ 0.2
233 | KHKV | ≤ 0.2
234 | TGKN | ≤ 0.2
235 | CGNR | ≤ 0.2
236 | RYNI | ≤ 0.2
237 | QSLD | ≤ 0.2
238 | WKIY | ≤ 0.2
239 | WTAG | ≤ 0.2
240 | AVDH | ≤ 0.2

Row | Variant | one-hybrid fitness for binding NBS DNA
241 | GSWC | ≤ 0.2
242 | AAAH | ≤ 0.2
243 | VPFG | ≤ 0.2
244 | QACV | ≤ 0.2
245 | TYFH | ≤ 0.2
246 | EPPW | ≤ 0.2
247 | AIEG | ≤ 0.2
248 | FRRM | ≤ 0.2
249 | RKPL | ≤ 0.2
250 | AKVG | ≤ 0.2
251 | PPRG | ≤ 0.2
252 | NNFL | ≤ 0.2
253 | RWEA | ≤ 0.2
254 | CRNT | 0.326
255 | CAAR | ≤ 0.2
256 | SVPS | ≤ 0.2
257 | RRHN | 0.331
258 | YRHK | ≤ 0.2
259 | RRYE | ≤ 0.2
260 | AFLN | ≤ 0.2
261 | GHWC | ≤ 0.2
262 | SFKC | ≤ 0.2
263 | QCFY | 0.213
264 | IMFR | ≤ 0.2

Row | Variant | one-hybrid fitness for binding NBS DNA
265 | EPSD | ≤ 0.2
266 | IVLV | ≤ 0.2
267 | AQQR | ≤ 0.2
268 | LEAG | ≤ 0.2
269 | CKSI | ≤ 0.2
270 | NHYC | ≤ 0.2
271 | GNPT | ≤ 0.2
272 | MTWS | ≤ 0.2
273 | MMSN | ≤ 0.2
274 | NVPT | ≤ 0.2
275 | SAAI | ≤ 0.2
276 | EAHV | ≤ 0.2
277 | HPAF | ≤ 0.2
278 | TPQV | ≤ 0.2
279 | CMKS | ≤ 0.2
280 | IVSA | ≤ 0.2
281 | RQHA | ≤ 0.2
282 | DQSY | ≤ 0.2
283 | SRQL | ≤ 0.2
284 | PAPY | ≤ 0.2
285 | SNTI | ≤ 0.2
286 | KANR | ≤ 0.2
287 | AAWN | ≤ 0.2
288 | NNPT | ≤ 0.2

Row | Variant | one-hybrid fitness for binding NBS DNA
289 | NTSV | ≤ 0.2
290 | DSSI | ≤ 0.2
291 | PADF | ≤ 0.2
292 | CMQL | ≤ 0.2
293 | RHDR | 0.216
294 | LLFP | ≤ 0.2
295 | QILM | ≤ 0.2
296 | AEPC | ≤ 0.2
297 | GRKH | ≤ 0.2
298 | GAEI | ≤ 0.2
299 | REKE | ≤ 0.2
300 | MNMD | ≤ 0.2
301 | KATD | ≤ 0.2
302 | YHVS | ≤ 0.2
303 | QYHQ | ≤ 0.2
304 | AMGK | ≤ 0.2
305 | RQPH | ≤ 0.2
306 | KISI | ≤ 0.2
